Laboratory results as given in the supplement of paper PMC11417369.
The other results are listed elsewhere or left out.

System: PfSIP2 AP2 domain 1 (GST-tagged)
Experiment: gcPBM binding intensity (ln(normalized median fluorescence intensity)); higher = stronger DNA binding
Method in brief: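 An Agilent 4 × 180k array carrying primer-extended double-stranded 36-bp intergenic genomic probes and negative controls received GST-tagged P. falciparum DNA-binding domains expressed in E. coli, about 25 μg on average, for 1 h. The binding buffer contained 1× PBS, 1% milk, 0.2 mg/ml BSA, 0.5% salmon testes DNA and 0.03% Triton X-100. Binding intensity is the top Masliner-normalised natural-log median intensity across replicate spots of either probe orientation, read after Alexa488 anti-GST antibody staining and a 488 nm scan.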

Row | Sequence | gcPBM binding intensity (ln)
1 | TAATTTTCTTTTTATCGTTTTTTTTTTTTTTTTTTT [XGTACX_negctrl_site432] | 7.79
2 | CATTATGTTGTAAATACACACATACATATACATACA [CACACA_site8143] | 7.06
3 | ATATATTATTTCTAGTGTACATACCCATATATAATA [XGTACX_site8902] | 7.29
4 | ATAAATAAGATATATACACACATATCTATACATATT [CACACA_site6369] | 6.89
5 | AATCCACTTTTTTATGTTATACAATATAAATTAAAT [XGTACX_negctrl_site446] | 7.13
6 | ATTTAAGAAAAAAGTTGTACTTATTTATTTTTATTT [XGTACX_site5561] | 6.99
7 | GGCTAAAAGGGGCACACACACAAAAAAAAAAAAAAA [CACACA_site3288] | 8.53
8 | TAAAAAATAAATATATGTACATATTTATTTTTTTTT [XGTACX_site850] | 7.03
9 | ATATTTTTTTTTTCGTGTACGCATAAATATATCTAA [XGTACX_site3360] | 7.3
10 | TAGATAAACAAGAAATGTACAAACGTAAATATGTTC [XGTACX_site2373] | 6.73
11 | ACAAAAATAAACTATAGTACACACTTATTATTATGA [XGTACX_site5680] | 6.91
12 | TCATTTTATTTTTTCACACACACATCTATATTTATA [CACACA_site7547] | 7.36
13 | TAAGTAACTTTTAAAAGTACCCACACATATATATAT [XGTACX_site1231] | 9.01
14 | TTTCTTTTTTTTTTTTTTTTTTTTTTTTTTTTTTTT [TGCATGCA_negctrl_site91] | 8.99
15 | TTTCCCTTGTTGTAAACATGCACAATATTTAGGTAT [TGCATGCA_site49] | 7.99
16 | AAAAAAAAGAAAAACACACACATATATATATAGAAT [CACACA_site1006] | 6.98
17 | TTATGTATTTATATAAATATAAATATATATATATAT [CACACA_negctrl_site774] | 9.1
18 | TATATTTATAGGTATACACACATATGTATGTTATGT [CACACA_site7824] | 7.03
19 | ATACATATAAATAATTGTACTATTAAAAAAGAACGT [XGTACX_site3751] | 7.3
20 | AAAAAAAAAAATACTCGTACATAAACCTATACATTT [XGTACX_site6494] | 6.98
21 | CAATTAGCATTTTATTGTACATTTATAATCTATGAT [XGTACX_site1445] | 7.01
22 | ATAATATATTTTTGTAGTACACTTCTGGTAATATCG [XGTACX_site2402] | 7.22

Row | Sequence | gcPBM binding intensity (ln)
23 | AGTATACAGATATATACACACATATATATATATATA [CACACA_site4323] | 9.59
24 | CTTAGAATATATGAATGTACTTTTTTTTTTAAATAA [XGTACX_site6048] | 7.09
25 | TATATATATATATGTTGTACAAAAATGTAAAATATA [XGTACX_site7761] | 9.4
26 | ATAATATTAATATGTACACACCTTAATCCTTAAAAG [CACACA_site7640] | 7.15
27 | GTATTTATATGATTAACACACATATGGGTATTAATA [CACACA_site4853] | 6.96
28 | ATAATTTTTTAAGTGTGTACTAAAATGTGTATTTTA [XGTACX_site6227] | 7.06
29 | TATACCTGAATTAAAAGTACATGTATATATTTTCCC [XGTACX_site3594] | 6.99
30 | TTGCATTTTCTAGTAACACACAATTAGCGTTGCTGT [CACACA_site3594] | 6.84
31 | TATAGAAGCATTCACACACACACATACATACACATA [CACACA_site1466] | 7.15
32 | TAACAAAAAGGGAACACATGCGCTCTTTATTTATTT [TGCATGCA_site620] | 6.68
33 | TATTATAGAAATTTAATGTTGGACAAAAAAATGAAA [CACACA_negctrl_site1351] | 7.09
34 | TCTTAATATCGTTTCTCACACATATACAAACATAAA [CACACA_site5700] | 7.47
35 | AATATATGAATTATATGTACATATAGATAAGTCACA [XGTACX_site7637] | 7.22
36 | AGAGAGAAAGCTATAACATGCAACAATTTTTAGAAC [TGCATGCA_site596] | 7.05
37 | AAATTATTTATTTTATGTACATATTATTAAAGTTAA [XGTACX_site552] | 7.37
38 | ATAAATGACAAATTAACACACATATATTATAGATAT [CACACA_site7770] | 6.86
39 | ATCTATATTTAATTTACACACAAAAAAAATTGTTGG [CACACA_site6582] | 6.96
40 | AAAATGTGATATGTAAATATATATGTATGTATATAT [CACACA_negctrl_site1748] | 7.09
41 | TAATGCATTTTCGCATGTACATATTTCTCTTTATAT [XGTACX_site8915] | 7
42 | GTTTGGTGGTGTTTTGGTACGTACGGGGGGGTATGT [XGTACX_site1983] | 9.74
43 | TTTTTTTTTTTTTATTGTACTTATTTTTTTATGTTT [XGTACX_site7725] | 7.59
44 | GTATTATATATATAGGTGCATATATATATATAAATA [GTGCAC_site9787] | 10.8

Row | Sequence | gcPBM binding intensity (ln)
45 | AAATATAAAGGATTAATATTATATATATATATATAT [XGTACX_negctrl_site211] | 9.18
46 | ACACATACATATACATACACATTGTTTTCATGCATC [XGTACX_negctrl_site126] | 7.64
47 | TATATGTGTCTACAGGTGCATATATCATATATTGCT | 9.84
48 | TAAATAAATTTATACACACACACACGGATATAAATA [CACACA_site6532] | 7.08
49 | TATAAATATTTATACACACACATATATTTATATATC [CACACA_site6366] | 7.06
50 | TATGTATTTTTATGCACACATGCGTGGCTTATATAA [CACACA_site387] | 7.39
51 | ATATTTTCTTTAAATTGTACATATTGTGATACAAAA [XGTACX_site5886] | 7.18
52 | ATTTTTTTTTTTTTTTTTTTTTTGTTTATACAAAAT [CACACA_negctrl_site1241] | 6.78
53 | TTTCATTTAGCTTTTACACACTATATATTATTGATT [CACACA_site16] | 7.11
54 | TATATACATACATGTAGTACCTAATTCGGTCCCGTA [XGTACX_site2702] | 6.79
55 | ATATATATATTTGTATGTACATATCATATTGTGTGT [XGTACX_site1580] | 8.43
56 | ATACGTGGGCAAAAAGTGCATATAATCAAAAAAAAA [GTGCAC_site9961] | 9.03
57 | AAGATATTTGAATATACACACGATTTAAATTTAATA [CACACA_site3866] | 6.89
58 | TTCTTTCTGTTTTATTTATAATAATTTATGATAAAA [CACACA_negctrl_site766] | 7.46
59 | TGTTTTTAATTTCGCACACACCTTGTGGAAAAAAAA [CACACA_site4482] | 7.36
60 | AAAATATTTATTACTTCACACATTATTGTATTTATA [CACACA_site5082] | 6.87
61 | CATATATTATTATATGCACACATGAAAATATACAAA [CACACA_site2795] | 7.7
62 | TTGAAATATACGTAAGTAAATTTCATTTGGTTGTGT [XGTACX_negctrl_site600] | 6.9
63 | GTATAACTTTTGCGCGTACACACATTTATCCTCTTT [CACACA_site208] | 7.63
64 | ACGTATAATATGTACACACACATATATACAAAAAAA [CACACA_site917] | 7.35
65 | TTTCTTTTTTTATAATCCACATTGGGAAAATCAAAA [TGCATGCA_negctrl_site159] | 6.83
66 | AAAGTTGTTACGAACATACACACGAACATACTCACG [CACACA_site604] | 6.82

Row | Sequence | gcPBM binding intensity (ln)
67 | TAGAATATCCCCTACACACCCAAATAATTTACAAAT [CACACA_site4825] | 7.03
68 | TTAACATATGACATTTTTTCACCCTTCCTTTATTTT [CACACA_negctrl_site1192] | 6.71
69 | ATAAAATCATTCAATGGTACAGAAATACAAAATGTA [XGTACX_site6739] | 6.96
70 | TATGTATAAAAATATTGTACATATTATATATATATA [XGTACX_site2947] | 8.75
71 | TTTTTTTTTTTTTTTTTTTGATTCTTATAAAAATTT [GTGCAC_negctrl_site240] | 7.04
72 | AGGTCACATTTGTCCTCACACATAGATAAATATATA [CACACA_site5460] | 6.96
73 | AATTAGCATTAAAAATGTACAAAAGAAAAAAATATA [XGTACX_site3816] | 6.7
74 | GTCAAAAATAATATATGTACTTATAATAGATAAATG [XGTACX_site7755] | 7.13
75 | ATAATTTGATCAATTTTTCATTTTTCATTTTTTTAA [CACACA_negctrl_site1252] | 6.68
76 | AGAAAGAATGAAAAATGTACATATATGTAATAGCTA [XGTACX_site364] | 6.97
77 | TAAAATTTAAAAAGGTGTACACTATAAATTAAAATA [XGTACX_site2081] | 7.01
78 | AATCAAAATTCATTAACACACAATTTTAATATTCTT [CACACA_site5178] | 6.9
79 | TTTTTTAAAATATGGACACACATATATATATATGTA [CACACA_site2784] | 7.21
80 | TATTTTTATAAGAGCATGCACTGTTTAAAATGGTAT | 8.54
81 | ATGATATGGATAAATACACACAATAAAATAATGTCT [CACACA_site6786] | 7
82 | TTTATTTATTTATGTTGTACAAGTTTATACTGGAAT [XGTACX_site6479] | 7.17
83 | TTTTAACAAAACAAAACAAAATAATATAAAGATAAC [TGCATGCA_negctrl_site154] | 7.36
84 | TTTTGATATAAAAAAAGTACATTAATAATATTAATT [XGTACX_site4248] | 7.07
85 | CAGTATTCTTCTATATGTACTTATTTAAATATTCTT [XGTACX_site7555] | 7.01
86 | TAAATAATAATAAATGTGCACAGGTATTAACAAAAA [GTGCAC_site9988] | 8.9
87 | TATAAATCTATAAATGCACACAAGGGAAGAAAAACG [CACACA_site2965] | 8.89
88 | TATTATTCCAAGAAAAAAAAAAATAAAAAAAAAAAA [CACACA_negctrl_site1424] | 6.65
